Drawing on publication PMC9530240, “Macromolecular crowding and supersaturation protect hemodialysis patients from the onset of dialysis-related amyloidosis” (Nature Communications, 2022), this text covers Kd for one molecule.

As usually defined, the Kd is the free concentration of one partner at which half of the binding sites on the other are occupied at equilibrium, for simple one-to-one binding.

Assay [1] deals with T1, serum albumin.
T1 construct: serum albumin, MW ~66.2 kDa; neither species nor supplier is stated for the isolated protein used in the QCM, NMR and HANABI experiments
Nature of the assay: NMR titration; 1H-15N HSQC of 15N-labelled β2m at 1.0 mg/mL with varying concentrations of serum albumin; 20 mM sodium phosphate pH 7, 100 mM NaCl, 2% D2O; 37 °C; KD estimated from the decrease in signal intensity. Conditions: both partners purified.

The target in assay [2] is T1, serum albumin. The assay is described as follows: quartz crystal microbalance (QCM); β2m monomer immobilised on the gold-coated quartz resonator (SAM, NHS/EDC) in 20 mM NaPi pH 7.4; serum albumin at various concentrations flowed at ~0.5 mL/min; 37 °C; KD = kd/ka from a linear fit of α against albumin concentration, 1:1 stoichiometry assumed; n = 3. Conditions: both partners purified.

B1: recombinant β2-microglobulin monomer with an additional methionine residue at the N terminus (natural protein)
chain: not shown
modifications: uniformly 15N-labelled in the NMR experiment only
notes: additional methionine residue at the N terminus, told in words; β2-microglobulin, the globular protein of 99 amino acid residues (the mature protein without its signal peptide); MW ~11.8 kDa; No tag is named; In the QCM experiment it was coupled to the sensor by NHS/EDC; also called β2m monomer; N (native state)
For B1, the Kd in assay [1] was about 500 µM; in assay [2], 492 µM.
